Test results: patent publication US12662541B2, “Antibody-drug conjugates against the receptor tyrosine kinase EphA5” (Rutgers, The State University of New Jersey, priority 2021, dated 2026)

Columns and labels:
[1] = Thermal ramp stability (UNcle biostability platform, Sypro Orange and SLS); type: physicochemical
From the text: Thermal ramp stability experiments (Tm and Tagg) are well established methods for ranking proteins and formulations for stability. A protein's denaturation profile provides information about its thermal stability and represents a structural ‘fingerprint’ for assessing structural and formulation buffer modifications. A widely used measure of the thermal structural stability of a protein is the temperature at which it unfolds from the native state to a denatured state. For many proteins, this unfolding process occurs over a narrow temperature range and the mid-point of this transition is termed ‘melting temperature’ or ‘Tm’. To determine the melting temperature of a protein, UNcle measures the fluorescence of Sypro Orange (which binds to exposed hydrophobic regions of proteins) as the protein undergoes conformational changes.
Samples for each variant were formulated in PBS and Sypro Orange at a final concentration of 1 mg/mL. […] Samples were subjected to a thermal ramp from 25-95° C., with a ramp rate of 0.3° C./minute and excitation at 473 nm. Full emission spectra were collected from 250-720 nm, and the area under the curve between 510-680 nm was used to calculate the inflection points of the transition curves (Tonset and Tm). Monitoring of static light scattering (SLS) at 473 nm allowed the detection of protein aggregation, and Tagg (onset of aggregation) was calculated from the resulting SLS profiles. Thermal stability values determined lie in a broad range from 57.9 to 69.6° C. (Tm1), 55.1 to 65.2° C. (Tonset) and 65.6 to 70.2° C. (Tagg) with the humanized leads generally showing improved profiles when compared to the chimeric antibody. […] All humanized antibodies appear to have a higher Tm1, Tonset and Tagg compared to the chimeric antibody.

[2] = tested on: 6,000 human membrane protein clones; experiment: Membrane Proteome Array (MPA) specificity screen; type: binding; settings: 20 μg/ml antibody, HEK-293T
Procedure: To optimize conditions for test antibody detection, HEK-293T cells and QT6 cells were transfected with plasmids encoding known test antibody targets, Protein A (binds antibody Fc; positive control), or vector alone (pUC; negative control) in 384-well cell-culture plates. After incubation, four four-fold dilutions starting at 20 μg/ml of each test antibody were added in quadruplicate to transfected cells and detected using a single dilution of secondary antibody in a high-throughput immunofluorescence flow cytometry assay. Data from assay setup experiments were used to determine the optimal screening conditions for high-throughput immunodetection (Table E4). Optimal screening concentrations were determined by the background signal (mean fluorescence intensity (MFI)), and false positive rate in the vector control.
Membrane Proteome Array: Membrane Proteome Array (MPA) screening was conducted at Integral Molecular. The MPA is a protein library composed of 6,000 human membrane protein clones, each overexpressed in live cells from expression plasmids. […] Before screening on the MPA, the test antibody concentration for screening was determined on cells expressing positive (membrane-tethered Protein A) and negative (mock-transfected) binding controls, followed by detection by flow cytometry using a fluorescently-labeled secondary antibody. […]

[3] = tested on: H460, A549 and H1299 human lung carcinoma cells; experiment: Incucyte Human Fabfluor-pH Red antibody internalization; type: cell-based; settings: naked mAb, real-time live cell imaging
Procedure: In vitro studies were conducted in which three different Eph5A-expressing target cell lines were incubated with various concentrations of VH5Vk3 or VH4Vk3 antibodies after which internalization of bound antibody was calculated. Antibody internalization was performed with the Incucyte® Human Fabfluor-pH Red Antibody Labeling Dye and the naked VH4Vk3 (FIG. 66) and VH5Vk3 (FIG. 67) human monoclonal antibodies in the following cell lines: H460 human lung carcinoma, A549 human lung carcinoma and H1299 human lung carcinoma. These cell lines express variable levels of EphA5 on the cell surface: H460 (+++)>A549 (++)=H1299 (++). Internalization was visualized and quantified using real-time live cell imaging analysis. The Fabfluor-pH Red Antibody Labeling Dye is sensitive to pH and only emits fluorescence once inside lysosomes in low pH conditions.

rhEphA5 antigen [4] = molecular target: T1, rhEphA5 antigen (Homo sapiens, UniProt P54756); experiment: ka (1/Ms)
T1 construct: purchased R and D systems 3036-A5
T1 sequence (P54756 25-1037 limits assumed): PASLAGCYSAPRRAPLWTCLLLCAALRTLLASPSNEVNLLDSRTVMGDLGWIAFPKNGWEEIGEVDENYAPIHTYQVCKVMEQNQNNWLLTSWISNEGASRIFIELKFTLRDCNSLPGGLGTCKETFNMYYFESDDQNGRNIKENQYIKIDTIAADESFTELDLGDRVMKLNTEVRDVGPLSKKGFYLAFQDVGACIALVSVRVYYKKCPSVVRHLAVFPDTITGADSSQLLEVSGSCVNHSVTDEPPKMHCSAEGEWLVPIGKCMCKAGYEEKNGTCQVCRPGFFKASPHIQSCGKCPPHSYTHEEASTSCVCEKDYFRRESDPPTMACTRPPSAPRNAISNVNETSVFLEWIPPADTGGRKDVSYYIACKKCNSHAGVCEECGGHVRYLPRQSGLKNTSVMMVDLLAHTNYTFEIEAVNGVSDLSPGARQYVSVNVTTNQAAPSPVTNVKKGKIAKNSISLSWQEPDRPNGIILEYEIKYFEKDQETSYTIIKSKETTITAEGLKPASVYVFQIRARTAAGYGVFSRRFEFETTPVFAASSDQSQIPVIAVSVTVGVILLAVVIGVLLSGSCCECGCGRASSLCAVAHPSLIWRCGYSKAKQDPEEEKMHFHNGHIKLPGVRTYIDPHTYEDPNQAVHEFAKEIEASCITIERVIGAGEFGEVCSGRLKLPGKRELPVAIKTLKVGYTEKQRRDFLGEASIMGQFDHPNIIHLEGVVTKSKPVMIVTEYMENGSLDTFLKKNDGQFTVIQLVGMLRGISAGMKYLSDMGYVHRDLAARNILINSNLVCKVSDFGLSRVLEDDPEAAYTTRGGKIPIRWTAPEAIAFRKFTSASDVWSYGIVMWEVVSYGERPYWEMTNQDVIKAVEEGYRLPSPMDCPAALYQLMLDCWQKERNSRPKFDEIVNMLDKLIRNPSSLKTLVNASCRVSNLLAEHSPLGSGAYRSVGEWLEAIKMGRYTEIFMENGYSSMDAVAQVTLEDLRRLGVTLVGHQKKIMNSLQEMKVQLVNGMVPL
Procedure: (§1) Table printed on a drawing sheet, FIG. 13
(§2) Head of the field: ka (1/Ms)
(§3) The patent's description of the figure: FIG. 13 is a table illustrating the single cycle kinetic parameters of chimeric (VH0/VK0) and humanized 11C12 variants (tested as cell culture supernatants) binding to rhEphA5 antigen as determined using the Biacore T200. The relative KD was calculated by dividing the KD of the humanized variant by that of the VH0/VK0 (top row) assayed in the same experiment. The variants marked with ‘*’ have KD values that are within two-fold of, or are better than, the chimeric antibody. The chimeric and selected variants marked in ‘#’ were identified as the main leads for purification. […]
(§4) Where the first naming reader finds the target: description_of_the_figure: humanized 11C12 variants (tested as cell culture supernatants) binding to rhEphA5 antigen as determined using the Biacore T200

rhEphA5 antigen [5] = molecular target: T1, rhEphA5 antigen; experiment: kd (1/s)
Procedure: as §1
(§5) Head of the field: kd (1/s)
as §3, §4

EphA5 antigen [6] = molecular target: T2, EphA5 antigen (Homo sapiens, UniProt P54756); experiment: ka (1/Ms)
T2 construct: purchased R and D systems 3036-A5
T2 sequence (P54756 25-1037 limits assumed): as above
Procedure: (§6) Table printed on a drawing sheet, FIG. 19
as §2
(§7) The patent's description of the figure: FIG. 19 is a table illustrating the Multi-cycle kinetic parameters of chimeric (VH0/VK0) and humanized variants (tested as purified proteins) binding to EphA5 antigen as determined using the Biacore T200. The relative KD was calculated by dividing the KD of the humanized variant by that of the VH0VK0 (first row) assayed in the same experiment. […]
(§8) Where the first naming reader finds the target: description_of_the_figure: humanized variants (tested as purified proteins) binding to EphA5 antigen as determined using the Biacore T200

EphA5 antigen [7] = molecular target: T2, EphA5 antigen; experiment: kd (1/s)
Procedure: as §6, §5, §7, §8

[8] = tested on: H522, H460, A549 and H1299 cells; experiment: Incucyte cytotoxicity of ADC (% confluence); type: cell-based, human; settings: EphA5 expression H522 (++++)>H460 (+++)>A549 (++)=H1299 (++)
[9] = tested on: H522-derived Xenograft Model of Human Lung Cancer; experiment: H522 xenograft efficacy; type: in vivo, mice; settings: 10 mg/kg i.v. weekly, 3 doses, FIGS. 72, 74, 76
[10] = tested on: A549 cell line-derived human lung cancer xenograft model; experiment: A549 xenograft efficacy; type: in vivo, mice
[11] = tested on: H460-derived xenograft model of human lung cancer; experiment: H460 xenograft efficacy; type: in vivo, mice; settings: 10 mg/kg every 5 days, 3 doses, group 3 n=9 (MMAE ADC), n=8 (SN-38 ADC)
[12] = tested on: patient-derived xenograft model (PDX) of breast cancer, ER, PR, and HER2 negative invasive ductal carcinoma; experiment: Triple-negative breast cancer PDX efficacy (Example 4); type: in vivo, mice; settings: 5 doses of 10 mg/kg every 7 days; controls reached endpoints within 16 days
Procedure: Lastly, a study was performed using a patient-derived xenograft model (PDX) of breast cancer. Briefly, tissue from an ER, PR, and HER2 negative (triple-negative) invasive ductal carcinoma breast tumor was xenografted into mice. […] After engraftment but prior to treatment, xenograft tissue was evaluated for the expression of EphA5 (FIG. 98, left). Treatment consisted of 5 doses of MMAE-conjugate ADC at 10 mg/kg administered every 7 days.

[13] = Body weight of tumor-bearing mice pre- and post-treatment, cell line xenograft studies

B1: VH4/VK3: humanized anti-EphA5 IgG1/kappa antibody, heavy chain SEQ ID NO:38, light chain SEQ ID NO:40 (antibody)
heavy: EVQLVESGGGLVQPGGSLKLSCAASGFTFSTFGIHWVRQAPGKGLEWVAYISGASTTIYYADTVKGRFTISRDNSKNTLYLQMNSLRAEDTAVYYCARYGTSFPYGLDYWGQGTLVTVSSASTKGPSVFPLAPSSKSTSGGTAALGCLVKDYFPEPVTVSWNSGALTSGVHTFPAVLQSSGLYSLSSVVTVPSSSLGTQTYICNVNHKPSNTKVDKRV[letters of human IgG1 Fc left out]
light: DIVMTQSPDSLAVSLGERATINCKASQSVDYDGDSYMNWYQQKPGKAPKLLIYGASNLESGIPDRFSGSGSGTDFTLTISRLEPEDAAVYYCQQSNEDPFTFGQGTKLEIKRTVAAPSVFIFPPSDEQLKSGTASVVCLLNNFYPREAKVQWKVDNALQSGNSQESVTEQDSKDSTYSLSSTLTLSKADYEKHKVYACEVTHQGLSSPVTKSFNRGEC
[1]
  Tagg ranking among the leads (SLS profiles): highest Tagg values
[2]
  Identified membrane protein targets, Target gene (HGNC): EPHA5
[3]
  internalization and lysosomal trafficking: confirmed receptor-mediated internalization and trafficking of both human monoclonal antibodies through the lysosomal compartment
rhEphA5 antigen [4]
  ka: 1.31e-06 M⁻¹ s⁻¹
rhEphA5 antigen [5]
  kd: 0.00137 s⁻¹
EphA5 antigen [6]
  ka: 1.49e-06 M⁻¹ s⁻¹
EphA5 antigen [7]
  kd: 0.00139 s⁻¹

B2: VH4Vk3-ThioBridge®-VCP-MMAE (conjugate)
heavy: B1 heavy
light: B1 light
[8]
  ADC induced cell death (decrease of confluence): increasing amounts of ADC induced cell death which is dependent on the levels of expression of the target EphA5
[9]
  tumor regression: Full regression was observed for all ADC-treated tumors
[10]; ADC-treated n=5, 10 mg/kg i.v.
  tumors with full regression: 4 tumors
[10]; ADC-treated n=5, sustained for the 32 days of the study
  tumors with partial regression: One tumor showed partial regression
[11]
  tumors with full regression: 2 tumors
[12]
  tumor growth: little measurable tumor growth
[13]; A549 xenograft, 10 mg/kg
  change in body weight, first dosing vs termination: no significant changes in body weight
[13]; H460 xenograft, 10 mg/kg every 5 days, 3 doses
  change in body weight, first dosing vs termination: no changes in body weight
[13]; H522 xenograft, 10 mg/kg weekly, 3 doses
  change in body weight, first dosing vs termination: no significant changes in body weight
